About 65 (0.1%) of roughly 45,000 compounds were called active. The call rests on the fitted dose curve; in most records, active means well fitted activation curve with a large enough effect; inconclusive means small, poorly fitted or top-dose-only effect; inactive means no such curve, though single readings can be large or run the other way. Some of the results follow.
The compounds below were run against Galactocerebrosidase (Homo sapiens) (UniProt P54803) (assay: A Novel Cell-Based Assay to Identify Small Molecules for B -Galactocerebrosidase). Settings: 145M-Twi-hGALC-G270D cells (Twitcher mouse brain line with human GALC G270D), HMU-beta-Gal fluorescence, 48 h; series mostly up to 57.5 µM; activation: at the top concentration.
UniProt P54803, sequence (P54803 whole entry, looked up): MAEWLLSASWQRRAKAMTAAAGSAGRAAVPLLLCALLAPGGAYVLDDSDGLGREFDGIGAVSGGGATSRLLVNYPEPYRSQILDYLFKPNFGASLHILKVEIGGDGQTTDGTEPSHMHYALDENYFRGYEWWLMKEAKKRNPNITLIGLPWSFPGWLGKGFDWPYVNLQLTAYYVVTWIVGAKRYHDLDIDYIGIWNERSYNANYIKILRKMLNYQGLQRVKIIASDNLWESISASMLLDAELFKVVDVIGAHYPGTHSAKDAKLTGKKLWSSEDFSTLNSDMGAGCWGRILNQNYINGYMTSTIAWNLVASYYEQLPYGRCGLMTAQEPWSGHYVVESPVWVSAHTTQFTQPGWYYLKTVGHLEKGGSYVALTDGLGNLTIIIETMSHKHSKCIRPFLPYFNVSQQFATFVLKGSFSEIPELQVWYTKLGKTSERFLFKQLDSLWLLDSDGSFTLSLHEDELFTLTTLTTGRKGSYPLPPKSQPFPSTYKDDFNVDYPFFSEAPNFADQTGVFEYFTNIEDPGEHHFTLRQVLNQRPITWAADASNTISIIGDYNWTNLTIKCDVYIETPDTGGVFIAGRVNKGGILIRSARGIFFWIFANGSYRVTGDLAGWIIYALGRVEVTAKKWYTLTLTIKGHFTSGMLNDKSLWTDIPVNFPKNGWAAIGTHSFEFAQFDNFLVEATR
How it was run: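 Mutant human GALC (G270D), stably expressed in a Twitcher mouse brain cell line lacking endogenous GALC, is measured in live-treated cells via 6-hexadecanoylamino-4-methylumbelliferyl-β-galactoside hydrolysis (0.1 mM final, pH 5.2) with fluorescent detection.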
Further: 0% is about no effect; nearly all actives have a fitted effect of over 65% in size.

activation, inactive:
O=S(=O)(NCc1ccccc1)c1ccc2[nH]c3c(c2c1)CCCCC3 -40.2%
Cc1cc(NS(=O)(=O)c2ccc(NC(=O)COc3c(C)cc(Br)cc3C)cc2)no1 -15%
COc1cccc(NS(=O)(=O)c2ccc3[nH]cc(C(=O)NC4CCCCC4)c(=O)c3c2)c1 -10.2%
CCOc1ccc(C(=O)Nc2ccc(C(=O)OCc3cc(=O)n4nc(CC)sc4n3)cc2)cc1 -5.02%
COC(=O)c1ccc(NC(=O)N2CCC(CN3CCc4ccccc4C3)CC2)cc1 -1.92%
COc1ccc(/C=C/C(=O)N2CCC(c3nc4ccccc4o3)CC2)cc1 -4.51%
COc1ccc(NC(=O)CSc2ccc(-c3cccs3)nn2)cc1 0.266%
COc1cccc(C(=O)Nc2cc(-c3ccccc3)nn2-c2ccccc2)c1 -8.36%
CC(=O)Oc1ccc(C(c2ccc(OC(C)=O)cc2)c2ccccn2)cc1 -10.8%
O=C(COc1ccc2oc3c(c2c1)CCCC3)Nc1ccc(Cl)cc1 -7.7%
CCOc1ccc(-c2c(C)nn3c(-c4ccccc4)c(C(=O)NCCOC)cnc23)cc1OCC -20%
CCOc1ccc(N(CC)S(=O)(=O)N2CCCC(C(=O)Nc3ccc(NC(C)=O)cc3)C2)cc1 (stereo not given) -22.8%
CN(C)C(=O)COC(=O)Cc1ccc(OC(=O)c2ccc(N=C(N)N)cc2)cc1 -21.1%
Cc1ccc(S(=O)(=O)N2CCCc3cc(NC(=O)c4ccc(F)c(F)c4)ccc32)cc1 -2.08%
CCOC(=O)c1ccc(NS(=O)(=O)c2cn(C)c(C)n2)cc1 -10.1%
CCS(=O)(=O)c1nc(S(=O)(=O)c2ccc(C)cc2)c(NCc2ccc(Cl)cc2)s1 -15.4%
COc1cccc(N2C(=O)C(CC(=O)Nc3ccc(F)cc3)N(CCC3=CCCCC3)C2=O)c1 (stereo not given) -3.83%
CCc1ccc(NC(=O)CC2C(=O)N(c3ccc(C)cc3)C(=O)N2CCc2ccncc2)cc1 (stereo not given) -20.3%
O=C1C2=C(Nc3ccccc3SC2c2ccc(Cl)c(Cl)c2)c2ccccc21 (stereo not given) -10.9%
COc1cccc(NC(=O)CN2C(=O)COc3ccc(S(=O)(=O)N4CCCCCC4)cc32)c1 -1.57%
CCOc1ccc(NC(=O)Cn2cc(C(=O)c3ccc(OCC)cc3)c(=O)c3cc4c(cc32)OCCO4)cc1 -7.1%
COc1ccccc1Cn1c(CNS(=O)(=O)c2ccc(CC(C)C)cc2)nc2cccnc21 -1.81%
COc1ccc(NC(=O)N(C(C)C)C2CCN(C(C)=O)CC2)c(OC)c1 -13.9%
Cc1ccc(CCNC(=O)c2cc3cc4cc(C)ccc4nc3s2)cc1 -18.7%
Cc1cc(SCC(=O)Nc2ccc(Cl)cc2)nc2ccccc12 -9.4%
CCc1ccc(-c2cc(C)no2)cc1S(=O)(=O)Nc1ccc(Cl)cn1 7.29%
Cc1ccc(Cn2cc(C(=O)c3ccc(C)cc3)c(=O)c3ccc(C)nc32)cc1 -14.6%
CC(=O)N1CCCc2cc(S(=O)(=O)N3CCCC(C(=O)NCc4ccccc4)C3)ccc21 (stereo not given) -20.7%
Cc1cccc(NC(=O)CSc2cn(CC(=O)N3CCCC3)c3ccccc23)c1C -18.2%
Cc1cccc(C)c1OCC(=O)N1CCC(c2nc3ccccc3o2)CC1 -14.5%
Nc1c(C(=O)NCc2ccc3c(c2)OCO3)nnn1CC(=O)Nc1ccc(Br)cc1 -12%
COc1ccc(NC(=O)CN(C)S(=O)(=O)c2ccc(C(=O)N3CCOCC3)s2)cc1 -2.57%
N=c1nc(N2CCCCC2)cc(N)n1O -12.6%
CCc1nn2c(-c3ccco3)ccnc2c1-c1ccccc1 -7.78%
Cc1cc(NC(=O)C2CCC(CNS(=O)(=O)c3ccc(Br)s3)CC2)ccc1Br (stereo not given) -13.2%
COc1cc(OC)c(NC(=O)c2cc3c(s2)-c2ccc(Cl)cc2SC3)cc1Cl -2.45%
Cc1cccc(N2CCN(C(=O)C3CCN(Cc4nc(-c5ccc(Cl)cc5)oc4C)CC3)CC2)c1C -6.85%
Cn1c(C(=O)NCc2ccc(F)cc2)cc2cc(S(=O)(=O)N3CCCCC3)ccc21 -15.9%
COc1ccc(NC(=O)CSc2nc(-c3ccc(OC)cc3)cc(=O)[nH]2)cc1 -14.5%
CCOC(=O)c1cc(S(=O)(=O)Nc2ccc(OC(F)(F)F)cc2)[nH]n1 -19.2%
CCC1CN(C(=O)N2CCC(C(=O)NCc3cc(OC)ccc3OC)CC2)c2ccccc2O1 (stereo not given) -17.8%
Cc1ccc(-n2nc(C(=O)NCCc3cccc(C)c3)c3c4ccccc4n(C)c3c2=O)cc1 -7.87%
COc1ccc(OC)c(CNC(=O)c2cc(-c3ccc(Cl)s3)nc3ccccc23)c1 2.62%
COc1cc(-c2nc3n(n2)C(c2ccc(F)cc2)C(C(N)=O)=C(C)N3)cc(OC)c1OC (stereo not given) -16.5%
COc1ccccc1NC(=O)c1oc2ccccc2c1NC(=O)c1ccc(S(=O)(=O)N(C)C)cc1 -4.47%
O=C(NCc1ccccc1Cl)c1cnc(N2CCCCC2)c2ccccc12 9.97%
CCN(C(=O)Cn1c(SCC(=O)NCc2ccccc2)nc2ccccc21)c1cccc(C)c1 -11.6%
O=C(Nc1cccc(Cl)c1Cl)c1cc2nc(-c3ccc4c(c3)OCO4)cc(C(F)(F)F)n2n1 -16.4%
Cc1cccn2c(Nc3ccc4c(c3)OCCO4)c(-c3ccc(Br)o3)nc12 -10.1%
COc1ccc(-c2cc3ccc(O)c(CN4CCN(CCO)CC4)c3oc2=O)cc1OC -13.5%
Cc1ccc(N2C(=O)c3oc4cc(C)c(C)cc4c(=O)c3C2c2cccc(O)c2)nc1 (stereo not given) -13.5%
CCCN(CCC)C(=O)c1c[nH]c2ccc(S(=O)(=O)Nc3cc(C)cc(C)c3)cc2c1=O -26.6%
Cc1ccc(NC(=O)c2nc(S(=O)(=O)Cc3cccc(C)c3)ncc2Cl)cc1 -22.3%
Cc1ccc(CNC(=O)c2cc(C3CC3)nc3c2c(C)nn3-c2cccc(Cl)c2C)cc1 -16.9%
Cc1ccc(C)c(NC(=O)CSc2nnc(C)n3c2cc2occc23)c1 -12.9%
COc1ccc(OC)c(-c2noc(N3CCN(c4cc(Cl)ccc4C)CC3)n2)c1 14.6%
C[C@@H]1CN(c2c(F)c(F)c3c(=O)c(C(=O)O)cn(C4CC4)c3c2F)C[C@H](C)N1 -20% [at 23.8 µM]
CCC1CCCCN1CCCNC(=O)c1ccc2c(c1)sc1nc(-c3ccc(F)cc3)cn12 (stereo not given) -10.3%
Cc1cc(C)cc(NC(=O)C(=O)NCC(c2cccnc2)N2CCc3ccccc32)c1 (stereo not given) -15.1%
Cn1c(=O)c2sccc2n2c(CCC(=O)Nc3ccc(F)cc3)nnc12 -13.8%

Source: PubChem BioAssay AID1159614 (National Center for Advancing Translational Sciences (NCATS), 2016)
